The record followed here is the supplement of paper PMC8728848.

The list shows a part of the results.

Common to all, as to assay: glycan array binding signal (z-score within array); higher = stronger binding
Common to all, as to settings: glycan notation: IUPAC condensed, linker removed

For assay [1], the target named is Gal(b1-3)GlcNAc(b1-6)[Gal(b1-3)]GalNAc. Put shortly:
(§1)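 Glycan array binding is given as a within-array Z-score, which can be read as non-binding when negative. The arrays, 3228 of them, came from the Consortium for Functional Glycomics database and were retained only where the protein sequence was available. Z-scores were averaged across arrays of the same protein sequence at different concentrations or buffers and across linkers.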

Assay [2] deals with Gal(b1-3)GlcNAc6S. Put shortly: as §1
Assay [3] concerns the target Gal(b1-3)[Fuc(a1-4)]GlcNAc. The essentials:
as §1

Assay [4] addresses Gal(b1-3)[Fuc(a1-4)]GlcNAc(b1-2)Man. The essentials:
as §1

Assay [5] has as its target Gal(b1-3)[Fuc(a1-4)]GlcNAc(b1-2)Man(a1-3)[Gal(b1-3)[Fuc(a1-4)]GlcNAc(b1-2)Man(a1-6)]Man(b1-4)GlcNAc(b1-4)[Fuc(a1-6)]GlcNAc. Put shortly: as §1
The target in assay [6] is Gal(b1-3)[Fuc(a1-4)]GlcNAc(b1-3)Gal(b1-3)[Fuc(a1-4)]GlcNAc. The essentials: as §1
The target in assay [7] is Gal(b1-3)[Fuc(a1-4)]GlcNAc(b1-3)Gal(b1-4)[Fuc(a1-3)]GlcNAc. Put shortly:
as §1

In assay [8] the target is Gal(b1-3)[Fuc(a1-4)]GlcNAc(b1-6)GalNAc. The essentials: as §1
The target of assay [9] is Gal(b1-3)[GlcNAc(b1-6)]GalNAc. The essentials: as §1
Assay [10] deals with Gal(b1-3)[Neu5Ac(a2-6)]GalNAc. The essentials: as §1
The target of assay [11] is Gal(b1-3)[Neu5Ac(a2-6)]GlcNAc(b1-4)Gal(b1-4)Glc. The essentials:
as §1

The target of assay [12] is Gal(b1-3)[Neu5Ac(b2-6)]GalNAc. The essentials:
as §1

The target of assay [13] is Gal(b1-4)Gal. The essentials:
as §1

Assay [14] concerns the target Gal(b1-4)GalNAc(a1-3)[Fuc(a1-2)]Gal(b1-4)GlcNAc. Put shortly:
as §1

Assay [15] addresses Gal(b1-4)GalNAc(b1-3)[Fuc(a1-2)]Gal(b1-4)GlcNAc. The essentials:
as §1

The target of assay [16] is Gal(b1-4)Glc. Put shortly:
as §1

For assay [17], the target named is Gal(b1-4)Glc6S. The essentials: as §1
In assay [18] the target is Gal(b1-4)GlcNAc. Put shortly:
as §1

Assay [19] deals with Gal(b1-4)GlcNAc(a1-6)Gal(b1-4)GlcNAc. Put shortly:
as §1

Assay [20] has as its target Gal(b1-4)GlcNAc(b1-2)Man. Put shortly: as §1
The target of assay [21] is Gal(b1-4)GlcNAc(b1-2)Man(a1-3)Man(b1-4)GlcNAc(b1-4)GlcNAc. The essentials:
as §1

Assay [22] has as its target Gal(b1-4)GlcNAc(b1-2)Man(a1-3)[Gal(b1-4)GlcNAc(b1-2)Man(a1-6)]Man(b1-4)GlcNAc(b1-4)GlcNAc. Put shortly:
as §1

B1: rEtpA (Escherichia coli) (protein)
chain: MNRIYKLKFDKRRNELVVVSEITTGVGNAKATGSVEGEKSPRRGVRAMALSLLSGMMIMAHPAMSANLPTGGQIVAGSGSIQTPSGNQMNIHQNSQNMVANWNSFDIGKGNTVQFDQPSSSAVALNRVVGGGESQIMGNLKANGQVFLVNPNGVLFGEGASVSTSGFVASTRDIKNDDFMNRRYTFSGGQKAGAAIVNQGELTTNAGGYIVLAADRVSNSGTIRTPGGKTVLAASERITLQLDNGGLMSVQVTGDVVNALVENRGLVSARDGQVYLTALGRGMLMNTVLNVSGVVEASGMHRQDGNIVLDGGDSGVVHLSGTLQADNASGQGGKVVVQGKNILLDKGSNITATGGQGGGEVYVGGGWQGKDSNIRNADKVVMQGGARIDVSATQQGNGGTAVLWSDSYTNFHGQISAKGGETGGNGGRVETSSHGNLQAFGTVSASAKKGKAGNWLLDSADITIVNGSNVSKTETTQSPPHTQFAPTAAGSAVSNTSINNRLNNGTSVTILTHRTRTGTAQGGNITVNAAINKSNGSDVNLTLQAGGNITVNNSITSTEGKLNVNLSGARTSNGSITISNNANITTNGGDITVGTTNTSNRVNISINNTTLNASNGNIQLTGTGTDSGILFAGNNRLTASNIALTGNSTSGNAINLTGTATLNATNNITLTGSSTSGNAINLKGNNTLTASNITLTGESTSGNAINLTDTTGTTTLNATNNITMQGTRVQIKHSNITAGNFALNATVAGSEISNTTLTATNNINLAAKTNSASSGVYLKDARITSTNGSITANGTATANGKATHLDGNVTLNASNGRIKLTGNGHGSASGILFAGNNRLTASNIALTGNSTSGNAINLTGTATLNATNDITLTGSSTSGNAINLTGTATLNATNNITLTGSSTSGNAINLKGNNTLTASNITLTGESTSGNAINLTDTTGTTTLNATNNITMQGTRVQIKHSNITAGNFALNATVAGSEISNTTLTATNNINLAAKTNSASSGVYLKDARITSTNGSITANGTATANGKATHLDGNVTLNASNGRIKLTGNGHGSASGILFAGNNRLTASNIALTGNSTSGNAINLTGTATLNATNDITLTGSSTSGNAINLTGTATLNATNNITLTGSSTSGNAINLKGNNTLTASNITLTGESTSGNAINLTDTTGTTTLNATNNITMQGTRVQIKHSNITAGNFALNATVAGSEISNTTLTATNNINLAAKTNSASSGVYLKDARITSTNGSITANGTATANGKATHLDGNVTLNASNGRIKLTGNGHGSASGILFAGNNRLTASNIALTGNSTSGNAINLTGTATLNATNDITLTGSSTSGNAINLTGTATLNATNNITLTGSSTSGNAINLKGNNTLTASNITLTGESTSGNAINLTDTTGTTTLNATNNITMQGTRVQIKHSNITAGNFALNATVAGSEISNTTLTATNNINLAAKTNSASSGVYLKDARITSTNGSITTNGTATANGKATHLDGNVTLNASNGRIKLTGNGHGSASGILFAGNNRLTASNIALTGNSTSGNAINLTGTATLNATNDITLTGSSTSGNAINLTGTATLNATNNITLTGSSTSGNAINLKGNNTLTASNITLTGESTSGNAINLTDTTGTTTLNATNNITMQGTRVQIKHSNITAGNFALNATVAGSEISNTTLTATNNINLAAKTNSASSGVYLKDARITSTNGSITANGTAPANDNATYLDGNVTLNASNGSIKLTGNGNGSTSGILFAGNNTLTASNITLTGNSEVYWQKLGPEQKLISEEDLNSAVDHHHHHH
As to B1, the “glycan array binding signal (z-score)” value in assay [1] was -0.375; in assay [2], -0.241; in [3] it was -0.298; in [4], 0.903; in [5], -0.041; in assay [6] it was -0.447. Also, the “glycan array binding signal (z-score)” value was -0.326 in assay [7]; -0.25 in [8]; -0.347 in assay [9]; -0.225 in [10]; -0.373 in [11]; -0.274 in [12]. The “glycan array binding signal (z-score)” value in assay [13] was 1.5; in [14], -0.332; in assay [15], -0.404; in assay [16] it was -0.343; in assay [17], -0.251; in [18], -0.255. For the same molecule, the “glycan array binding signal (z-score)” value in assay [19] is -0.439; in [20] it was 0.585; in assay [21], -0.058; in [22], -0.356.
